# Laboratory results published in PubChem BioAssay AID1345083 (National Center for Advancing Translational Sciences (NCATS), 2018).
# “And” between values parts separate entries of the source, which are not always exact repeats. Equal entries are not always repeated. Hit rate of the full screen: of about 94,000 compounds, about 6,200 (6.6%) were called active. The shares of active, inactive and inconclusive entries below differ from those in the screen. The call rests on the fitted dose curve; in most records, active means well fitted inhibition curve with a large enough effect; inconclusive means small, poorly fitted or top-dose-only effect; inactive means flat fitted curve, though single readings scatter. Potencies of inconclusive entries are doubtful fits and often do not repeat.
# Experiment: Cytotoxic Profiling in HEK 293 Cell Line of Diverse Libraries Using Quantitative High-Throughput Screening; further: nearly all actives have a fitted effect of over 60% in size
# Conditions: HEK 293 viability, ATP luminescence (CellTiter-Glo), 48-72 h; activity change, negative = cytotoxicity: at 115 µM (top of the series) unless noted; series mostly up to 115 µM
# Summary of the method: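 HEK 293 cells at 250 cells/well were exposed to compounds by pintool transfer for 48 or 72 hr at 37 degree Celsius, 5% CO2. Viability was read as ATP-coupled luminescence with CellTiter-Glo after 10 min at room temperature.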
# On the % scale 0 is the no-effect control and ±100 the full control effect; potency means the concentration at half of the fitted maximal effect; tags describe the fitted curve by direction and shape.
Compound,Potency,"activity change, negative = cytotoxicity",outcome
COC(=O)N1CCN(c2nccc(Nc3ccccc3F)n2)CC1,active: 89.1 µM,–,–
c1ccc(-c2cn3c(n2)CO[C@@H](CNCC2CCCCC2)C3)cc1,active: 100 µM,–,–
CCCCCC(=O)Nc1nc2c(s1)C[C@@H]1[C@](C)(CO)[C@H](O)CC[C@@]1(C)[C@@H]2CC(=O)NCc1cccnc1,"inconclusive: 50.1 µM [inhibitor, partial curve, poor fit]",–,–
O=C(c1ccc2[nH]ccc2c1)N1CCN(c2cc(-c3ccccc3)[nH]n2)CC1,"inconclusive: 44.7 µM [inhibitor, partial curve, poor fit]",–,–
CN(C)Cc1ccc2c(c1)c(OC(C)(C)C(=O)NCCN1CCOCC1)nn2Cc1ccccc1,"inconclusive: 100 µM [inhibitor, single point]",–,–
CN(C)c1ccc(CN2CC(Oc3ccc(F)cc3F)C2)cc1,"inconclusive: 112 µM [inhibitor, single point]",–,–
Cc1cn2nc(C(=O)NCc3ccc(F)cc3)cc2c(N2CCCC2)n1,"inconclusive: 89.1 µM [inhibitor, single point]",–,–
Cn1ncc2c(C(=O)NC3CCC3)cc(-c3cccc(F)c3)nc21,"inconclusive: 63.1 µM [inhibitor, partial curve]",–,–
O=C(O)C[C@@H]1CCN(C(=O)C2CCC2)C[C@@H]1CCN1CCN(c2ccccn2)CC1,–,inactive: 1.54% [at 172 µM],–
CC(C)CN1C(=O)c2cccn2CC1C(=O)NCc1ccc(OC(C)C)cc1 (configuration not stated),–,inactive: -13.1%,–
CC(C)(C)c1csc(NC(=O)C2CC(=O)N(c3n[nH]c4cccc(F)c34)C2)n1 (configuration not stated),active: 44.7 µM,–,–
CCN1CCC2(Cc3ccccc3CN(C(=O)Cc3ccccc3)C2)C1 (configuration not stated),"inconclusive: 50.1 µM [inhibitor, partial curve]",–,–
CCC1CN(Cc2cn(-c3ccccc3C)nc2-c2ccc(OC)c(F)c2)CCO1 (configuration not stated),"inconclusive: 50.1 µM [inhibitor, partial curve, poor fit]",–,–
c1cncc(-c2cc3c(cn2)CN(Cc2ccncc2)CCN3)c1,"inconclusive: 100 µM [inhibitor, partial curve]",–,–
O=C(c1ccc(Cl)nc1)N1CCN(C(=O)c2cccc(-c3ccccn3)c2)CC1,–,inactive: -10.1%,–
COc1ccc(-c2noc([C@@H]3Cc4nc[nH]c4CN3C(=O)Nc3ccc(Cl)cc3)n2)cc1,"inconclusive: 50.1 µM [inhibitor, partial curve, poor fit]",–,–
COc1cccc(CN2CCC3(C2)NC(=O)c2ccccc2CO3)c1 (configuration not stated),"inconclusive: 112 µM [inhibitor, partial curve]",–,–
CC(C)CN(Cc1cccnc1)C1CN(C(=O)CCc2nc3ccccc3s2)C1,"inconclusive: 50.1 µM [inhibitor, partial curve, poor fit]",–,–
Cc1cc2nc3n(c(=O)c2n1CC(=O)NC1CCc2ccccc21)CCCCC3 (configuration not stated),"inconclusive: 79.4 µM [inhibitor, partial curve, poor fit]",–,–
N#Cc1cccc(NC(=O)c2cccc(CN3CCN(CCO)CC3)c2)c1,"inconclusive: 89.1 µM [inhibitor, single point]",–,–
COc1ccc(-c2cc(N3CCC(NC(=O)c4cccc(Cl)c4)C3)n[nH]2)cc1 (configuration not stated),"inconclusive: 50.1 µM [inhibitor, partial curve, poor fit]",–,–

Compound,Potency,"activity change, negative = cytotoxicity",outcome
CCCC(=O)N1Cc2ccccc2CC2(CCCN2Cc2ccncc2)C1 (configuration not stated),–,inactive: -10.1%,–
COC[C@H]1NC(=O)CC[C@H]1C(=O)N1CCN(c2ccccc2)CC1,–,inactive: -0.0283%,–
COCC(=O)N1CC(N2C(=O)c3c(c(C)nn3-c3ccccc3)C2C2CC2)C1 (configuration not stated),–,inactive: -13.6% [at 172 µM],–
COc1cccc(C(=O)NCc2nnc3c(-c4nc(C(C)C)no4)cccn23)c1,–,–,inactive
Cc1ccc2c(c1)N(CCCC(=O)N1CCCC(Cc3nncn3-c3ccccc3)C1)C(=O)CO2 (configuration not stated),"inconclusive: 89.1 µM [inhibitor, single point]",–,–
Cc1ccccc1-c1ccc2c(n1)CN(CCOc1ccccc1)C(=O)CO2,"inconclusive: 100 µM [inhibitor, partial curve, poor fit]",–,–
CCOC(=O)C1=C(C)N=C2SC=C(CC(=O)NC3CC3)N2C1c1cccc([N+](=O)[O-])c1 (configuration not stated),"inconclusive: 79.4 µM [inhibitor, single point]",–,–
O=c1n(-c2ccc([N+](=O)[O-])cc2)nc2n1CCN(Cc1ccccc1)C2,active: 28.2 µM,–,–
COc1ccc(-c2nnc(C[C@@H]3C[C@@H](C(C)C)[C@H](CNC(=O)c4ccc(F)cc4)C=C3C)o2)cc1,"inconclusive: 14.1 µM [inhibitor, full curve, poor fit]",–,–
O=C1NCCCCCCN(C(=O)c2cccnc2)[C@H]2C[C@H](C(=O)N3CCc4ccccc4C3)C[C@@H]12,–,inactive: -1.92%,–
O=C(NC[C@H]1O[C@H](Cc2cc(-c3ccccc3)on2)CC[C@@H]1O)c1cnccn1,"inconclusive: 10 µM [inhibitor, full curve, poor fit]",–,–
O=C(Nc1ccc([C@H]2OCC(=O)N(Cc3cccnc3)[C@@H]2CO)cc1)c1cc(F)cc(F)c1,"inconclusive: 70.8 µM [inhibitor, partial curve, poor fit]",–,–
COc1ccc(C(=O)N2CCCC(C(=O)N3CCC(c4nc5ccncc5[nH]4)CC3)C2)cc1 (configuration not stated),–,–,inactive
Cc1cc(-c2cc3c(cn2)CN(Cc2ccccc2F)CCN3)ccn1,active: 70.8 µM,–,–
O=C(N[C@H]1CO[C@H]2[C@@H]1OC[C@@H]2Nc1nccc(-c2ccc(-c3ccccc3)cc2)n1)c1ccccc1,active: 10 µM,–,–
Cc1ccccc1C(=O)N1CCC(N2C(=O)c3c(c(C)nn3-c3ccccc3)C2C)C1 (configuration not stated),active: 44.7 µM,–,–
O=C(NCC1CCOCC1)c1n[nH]c2ccccc12,–,inactive: 4.25%,–
CC(=O)N1CCc2c(nc(-c3ccccn3)nc2N(C)CCCN(C)C)C1,–,inactive: -1.65%,–
Cc1ncc2n1C(=O)N(C1CCN(Cc3ccccc3)CC1)C2,"active: 100 µM and inconclusive: 126 µM [inhibitor, single point]",–,–
CCn1nc(C)cc1C(=O)N1CCCC(CCC(=O)NCc2ccc(OC)cc2OC)C1 (configuration not stated),"inconclusive: 39.8 µM [inhibitor, partial curve, poor fit]",–,–
CCC1(N2CCN(C(=O)c3ccc(F)c(Cl)c3)CC2)CCN(C(=O)NC)C1 (configuration not stated),"inconclusive: 89.1 µM [inhibitor, single point]",–,–

Compound,Potency,"activity change, negative = cytotoxicity",outcome
Cc1cc(=O)n(CC(=O)Nc2cccc(C)c2C)c(N(C)Cc2ccccc2)n1,"inconclusive: 44.7 µM [inhibitor, partial curve, poor fit]",–,–
CCN1c2cc(C(=O)NCCc3ccccc3)ccc2C(=O)N2CCCCC21 (configuration not stated),"inconclusive: 79.4 µM [inhibitor, single point]",–,–
CN(Cc1ccccc1Cl)C(=O)c1coc(COc2ccc3c(c2)OCO3)n1,"inconclusive: 89.1 µM [inhibitor, partial curve, poor fit]",–,–
COc1ccccc1OCC(=O)c1ccc2c(c1)N(C(C)C(=O)NCCc1ccccc1)C(=O)CO2 (configuration not stated),"inconclusive: 89.1 µM [inhibitor, partial curve, poor fit]",–,–
O=C(Nc1cccc2ccccc12)O[C@@H]1CO[C@H]2[C@@H]1OC[C@@H]2Nc1nccc(-c2ccccc2)n1,"inconclusive: 39.8 µM [inhibitor, full curve, poor fit]",–,–
CCC1Oc2ccc(NC(=O)c3ccccc3F)cc2CN(Cc2ccccc2F)C1=O (configuration not stated),"inconclusive: 44.7 µM [inhibitor, partial curve, poor fit]",–,–
COC(=O)NC1CCN(C(=O)c2ccc(-c3cncnc3)cc2)CC1,–,inactive: -6.42%,–
CC(=O)N1CCC([C@@H]2CN(Cc3cc(F)c(F)c(F)c3)C[C@H]2CO)CC1,"inconclusive: 89.1 µM [inhibitor, single point]",–,–
CCNC(=O)N1CCCCC1c1nc(CCOc2cccc(C)c2)no1 (configuration not stated),"inconclusive: 89.1 µM [inhibitor, single point]",–,–
O=C(CC1CCCCC1)N1CCCC(c2noc(COc3ccccc3)n2)C1 (configuration not stated),"inconclusive: 44.7 µM [inhibitor, partial curve, poor fit]",–,–
Cn1cc(-c2cnc3[nH]cc(CC(=O)Nc4cccc(F)c4)c3c2)cn1,active: 44.7 µM,–,–
O=C(c1ccc(F)cc1F)N1CCN(c2cc(-c3ccc(Cl)cc3)[nH]n2)CC1,active: 39.8 µM,–,–
COc1ccc2nc3n(c2c1)[C@@H](CNCC(C)(C)C)COC3,"inconclusive: 89.1 µM [inhibitor, partial curve]",–,–
O=C(COc1ccc(F)cc1)N1CCN(c2cc(C(F)(F)F)ncn2)CC1,"inconclusive: 79.4 µM [inhibitor, partial curve, poor fit]",–,–
Cc1cc(C)cc(C(=O)NCc2nnc3ccc(-c4ccccc4)nn23)c1,"inconclusive: 89.1 µM [inhibitor, single point]",–,–
COc1ccc(CN2CCc3nc(C(=O)NCCOc4ccccc4)oc3CC2)cn1,"inconclusive: 89.1 µM [inhibitor, partial curve, poor fit]",–,–
COc1cc(CN2C[C@@H]3C(=O)N(CCc4ccccc4)C(=O)[C@@H]3C2)cc(OC)c1,"inconclusive: 89.1 µM [inhibitor, partial curve, poor fit]",–,–
COCCCNC(=O)c1cn2cc(-c3ccc(OC)cc3)sc2n1,active: 79.4 µM,–,–
Cc1ccc(C(=O)N2CCC(CCC(=O)NCCc3c[nH]c4ccccc34)CC2)cc1,"inconclusive: 56.2 µM [inhibitor, partial curve, poor fit]",–,–
COc1ccc(Cl)cc1NC(=O)Cn1c(N(C)Cc2ccccc2)nc(C)cc1=O,"inconclusive: 11.2 µM [inhibitor, full curve]",–,–
